# This is one part of the list.
# Legend:
# Test in all cases: glycan array binding signal (z-score within array); higher = stronger binding
# Details in all cases: glycan notation: IUPAC condensed, linker removed
# Kdn(a2-6)Gal(b1-4)GlcNAc = biological target: Kdn(a2-6)Gal(b1-4)GlcNAc
# Summary of the method: (§1)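 Glycan array binding is given as a within-array Z-score, which can be read as non-binding when negative. The arrays, 3228 of them, came from the Consortium for Functional Glycomics database and were retained only where the protein sequence was available. Z-scores were averaged across arrays of the same protein sequence at different concentrations or buffers and across linkers.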
# Man(a1-2)Man = biological target: Man(a1-2)Man
# Summary of the method: as §1
# [1] = biological target: Man(a1-2)Man(a1-2)Man(a1-3)Man
# Summary of the method: as §1
# [2] = biological target: Man(a1-2)Man(a1-2)Man(a1-3)[Man(a1-2)Man(a1-3)[Man(a1-2)Man(a1-6)]Man(a1-6)]Man(b1-4)GlcNAc(b1-4)GlcNAc
# Summary of the method: as §1
# [3] = biological target: Man(a1-2)Man(a1-2)Man(a1-3)[Man(a1-2)Man(a1-6)[Man(a1-3)]Man(a1-6)]Man(b1-4)GlcNAc(b1-4)GlcNAc
# Summary of the method: as §1
# [4] = biological target: Man(a1-2)Man(a1-2)Man(a1-3)[Man(a1-3)[Man(a1-6)]Man(a1-6)]Man(b1-4)GlcNAc(b1-4)GlcNAc
# Summary of the method: as §1
# [5] = biological target: Man(a1-2)Man(a1-2)Man(a1-6)[Man(a1-3)]Man
# Summary of the method: as §1
# Man(a1-2)Man(a1-3)Man = biological target: Man(a1-2)Man(a1-3)Man
# Summary of the method: as §1
# [6] = biological target: Man(a1-2)Man(a1-3)[Man(a1-2)Man(a1-6)[Man(a1-3)]Man(a1-6)]Man(b1-4)GlcNAc(b1-4)GlcNAc
# Summary of the method: as §1
# [7] = biological target: Man(a1-2)Man(a1-3)[Man(a1-2)Man(a1-6)]Man
# Summary of the method: as §1
# [8] = biological target: Man(a1-2)Man(a1-3)[Man(a1-2)Man(a1-6)]Man(a1-6)[Man(a1-2)Man(a1-2)Man(a1-3)]Man
# Summary of the method: as §1
# [9] = biological target: Man(a1-2)Man(a1-3)[Man(a1-2)Man(a1-6)]Man(a1-6)[Man(a1-2)Man(a1-2)Man(a1-3)]Man(b1-4)GlcNAc(b1-4)GlcNAc
# Summary of the method: as §1
# [10] = biological target: Man(a1-2)Man(a1-3)[Man(a1-3)[Man(a1-6)]Man(a1-6)]Man(b1-4)GlcNAc(b1-4)GlcNAc
# Summary of the method: as §1
# [11] = biological target: Man(a1-2)Man(a1-3)[Man(a1-6)]Man(a1-6)[Man(a1-2)Man(a1-3)]Man(b1-4)GlcNAc(b1-4)GlcNAc
# Summary of the method: as §1
# [12] = biological target: Man(a1-2)Man(a1-6)[Man(a1-3)]Man(a1-6)[Man(a1-2)Man(a1-2)Man(a1-3)]Man
# Summary of the method: as §1
# [13] = biological target: Man(a1-2)Man(a1-6)[Man(a1-3)]Man(a1-6)[Man(a1-2)Man(a1-2)Man(a1-3)]Man(b1-4)GlcNAc(b1-4)GlcNAc
# Summary of the method: as §1
# Man(a1-3)Man = biological target: Man(a1-3)Man
# Summary of the method: as §1
# [14] = biological target: Man(a1-3)Man(a1-6)[Man(a1-3)]Man(b1-4)GlcNAc(b1-4)GlcNAc
# Summary of the method: as §1
# Man(a1-3)Man(b1-4)GlcNAc = biological target: Man(a1-3)Man(b1-4)GlcNAc
# Summary of the method: as §1
# Man(a1-3)[Man(a1-6)]Man = biological target: Man(a1-3)[Man(a1-6)]Man
# Summary of the method: as §1
# [15] = biological target: Man(a1-3)[Man(a1-6)]Man(a1-6)Man(b1-4)GlcNAc(b1-4)GlcNAc
# Summary of the method: as §1
# [16] = biological target: Man(a1-3)[Man(a1-6)]Man(a1-6)[Man(a1-2)Man(a1-3)]Man(b1-4)GlcNAc(b1-4)GlcNAc
# Summary of the method: as §1
# [17] = biological target: Man(a1-3)[Man(a1-6)]Man(a1-6)[Man(a1-3)]Man
# Summary of the method: as §1
# [18] = biological target: Man(a1-3)[Man(a1-6)]Man(a1-6)[Man(a1-3)]Man(b1-4)GlcNAc(b1-4)GlcNAc
# Summary of the method: as §1
# [19] = biological target: Man(a1-3)[Man(a1-6)]Man(b1-4)GlcNAc(b1-4)GlcNAc
# Summary of the method: as §1
# [20] = biological target: Man(a1-3)[Man(a1-6)]Man(b1-4)GlcNAc(b1-4)[Fuc(a1-6)]GlcNAc
# Summary of the method: as §1
# Man(a1-6)Man = biological target: Man(a1-6)Man
# Summary of the method: as §1
# [21] = biological target: Man(a1-6)Man(b1-4)GlcNAc(b1-4)GlcNAc
# Summary of the method: as §1
# Man(b1-4)GlcNAc = biological target: Man(b1-4)GlcNAc
# Summary of the method: as §1
# [22] = biological target: Man(b1-4)Man(b1-4)Man(b1-4)Man
# Summary of the method: as §1
# [23] = biological target: Man(b1-4)Man(b1-4)Man(b1-4)Man(b1-4)Man
# Summary of the method: as §1
# [24] = biological target: Man(b1-4)Man(b1-4)Man(b1-4)Man(b1-4)Man(b1-4)Man
# Summary of the method: as §1
# [25] = biological target: Man6P(a1-3)Man(a1-3)Man(a1-3)Man(a1-2)Man
# Summary of the method: as §1
# MurNAc(b1-4)GlcNAc = biological target: MurNAc(b1-4)GlcNAc
# Summary of the method: as §1
# Neu(a2-3)Gal(b1-4)Glc = biological target: Neu(a2-3)Gal(b1-4)Glc
# Summary of the method: as §1
# [26] = biological target: Neu(a2-3)Gal(b1-4)GlcNAc(b1-3)Gal(b1-4)[Fuc(a1-3)]GlcNAc(b1-3)Gal(b1-4)Glc
# Summary of the method: as §1
# [27] = biological target: Neu(a2-3)Gal(b1-4)GlcNAc6S(b1-3)Gal(b1-4)Glc
# Summary of the method: as §1
# [28] = biological target: Neu(a2-3)Gal(b1-4)[Fuc(a1-3)]GlcNAc(b1-3)Gal(b1-4)Glc
# Summary of the method: as §1
# [29] = biological target: Neu(a2-3)Gal(b1-4)[Fuc(a1-3)]GlcNAc6S(b1-3)Gal(b1-4)Glc
# Summary of the method: as §1
# [30] = biological target: Neu(a2-3)Gal6S(b1-4)[Fuc(a1-3)]GlcN(b1-3)Gal(b1-4)Glc
# Summary of the method: as §1
# Neu(a2-6)Gal(b1-4)Glc = biological target: Neu(a2-6)Gal(b1-4)Glc
# Summary of the method: as §1
# [31] = biological target: Neu4Ac5Ac(a2-3)Gal(b1-4)Glc
# Summary of the method: as §1
# [32] = biological target: Neu4Me5Ac(a2-3)Gal(b1-4)Glc
# Summary of the method: as §1
# Neu5Ac(a2-2)Glc = biological target: Neu5Ac(a2-2)Glc
# Summary of the method: as §1
# [33] = biological target: Neu5Ac(a2-3)4dGal(b1-4)[Fuc(a1-3)]GlcNAc(b1-3)Gal
# Summary of the method: as §1
binder,measurement,setting,value
"PNA (Arachis hypogaea), P02872 (protein) MKPFCVFLTFFLLLAASSKKVDSAETVSFNFNSFSEGNPAINFQGDVTVLSNGNIQLTNLNKVNSVGRVLYAMPVRIWSSATGNVASFLTSFSFEMKDIKDYDPADGIIFFIAPEDTQIPAGSIGGGTLGVSDTKGAGHFVGVEFDTYSNSEYNDPPTDHVGIDVNSVDSVKTVPWNSVSGAVVKVTVIYDSSTKTLSVAVTNDNGDITTIAQVVDLKAKLPERVKFGFSASGSLGGRQIHLIRSWSFTSTLITTTRRSIDNNEKKIMNMASA",glycan array binding signal (z-score),Kdn(a2-6)Gal(b1-4)GlcNAc,-0.203
same,glycan array binding signal (z-score),Man(a1-2)Man,-0.195
same,glycan array binding signal (z-score),[1],-0.184
same,glycan array binding signal (z-score),[2],-0.195
same,glycan array binding signal (z-score),[3],-0.195
same,glycan array binding signal (z-score),[4],-0.195
same,glycan array binding signal (z-score),[5],-0.14
same,glycan array binding signal (z-score),Man(a1-2)Man(a1-3)Man,-0.146
same,glycan array binding signal (z-score),[6],-0.195
same,glycan array binding signal (z-score),[7],-0.126
same,glycan array binding signal (z-score),[8],-0.204
same,glycan array binding signal (z-score),[9],-0.089
same,glycan array binding signal (z-score),[10],-0.195
same,glycan array binding signal (z-score),[11],-0.168
same,glycan array binding signal (z-score),[12],-0.119
same,glycan array binding signal (z-score),[13],-0.178
same,glycan array binding signal (z-score),Man(a1-3)Man,-0.051
same,glycan array binding signal (z-score),[14],-0.195
same,glycan array binding signal (z-score),Man(a1-3)Man(b1-4)GlcNAc,-0.195
same,glycan array binding signal (z-score),Man(a1-3)[Man(a1-6)]Man,-0.164
same,glycan array binding signal (z-score),[15],-0.195
same,glycan array binding signal (z-score),[16],0.296
same,glycan array binding signal (z-score),[17],-0.129
same,glycan array binding signal (z-score),[18],-0.186
same,glycan array binding signal (z-score),[19],-0.16
same,glycan array binding signal (z-score),[20],-0.194
same,glycan array binding signal (z-score),Man(a1-6)Man,-0.004
same,glycan array binding signal (z-score),[21],-0.195
same,glycan array binding signal (z-score),Man(b1-4)GlcNAc,-0.219
same,glycan array binding signal (z-score),[22],-0.195
same,glycan array binding signal (z-score),[23],-0.144
same,glycan array binding signal (z-score),[24],-0.035
same,glycan array binding signal (z-score),[25],-0.195
same,glycan array binding signal (z-score),MurNAc(b1-4)GlcNAc,-0.183
same,glycan array binding signal (z-score),Neu(a2-3)Gal(b1-4)Glc,-0.195
same,glycan array binding signal (z-score),[26],-0.195
same,glycan array binding signal (z-score),[27],-0.195
same,glycan array binding signal (z-score),[28],-0.195
same,glycan array binding signal (z-score),[29],-0.195
same,glycan array binding signal (z-score),[30],-0.195
same,glycan array binding signal (z-score),Neu(a2-6)Gal(b1-4)Glc,-0.195
same,glycan array binding signal (z-score),[31],-0.195
same,glycan array binding signal (z-score),[32],-0.195
same,glycan array binding signal (z-score),Neu5Ac(a2-2)Glc,-0.195
same,glycan array binding signal (z-score),[33],-0.195

# Reference: the supplement of paper PMC8728848
